Laboratory results: PubChem BioAssay AID1347073 (National Center for Advancing Translational Sciences (NCATS), 2019)
The campaign covered roughly 45,000 compounds. About 200 (0.44%) were called active. Not shown: some 7% with an inconclusive outcome. Calls follow the shape of the dose curve; as a rule, active = well fitted activation curve with a large enough effect; inconclusive = small, poorly fitted or top-dose-only effect; inactive = no such curve, though single readings can be large or run the other way. The list shows a part of the results.

assay: qHTS of TDP-43 Inhibitors: NCGC Sytravon Library Screen; conditions: yeast TDP-43 toxicity rescue, BacTiter-Glo growth, 24 h; series mostly up to 46.1 µM; growth rescue (activation): at the top concentration; also: 0% is about no effect; nearly all actives have a fitted effect of over 55% in size
Procedure, shortened: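 TDP-43-expressing yeast, pregrown in raffinose, seeded at OD600 0.02 in galactose medium with compound for 24 hr at 30 deg C. Growth read by BacTiter-Glo luminescence, so rescue of toxicity appears as activation.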

Structure (SMILES)	growth rescue (activation)
CNc1c(NS(=O)(=O)c2cc(Cl)ccc2OC)c(=O)oc2ccccc12	inactive: -1.06%
O=C(CSc1nccn1C1CCCC1)Nc1ccccc1	inactive: 11.5%
CCOC(=O)CSc1nc2ccccc2n2c(C)nnc12	inactive: 8.66%
COc1ccc(CNC(=O)CN(C(=O)CCC(=O)Nc2nccs2)c2ccc(C)cc2)cc1	inactive: 10.3%
O=C(CSc1nnc(Nc2ccccc2)s1)NC1CCS(=O)(=O)C1 (stereo unspecified)	inactive: 4%
S=c1[nH]nc(-c2ccco2)n1-c1ccc(Cl)cc1	inactive: -7.33%
CCOC(=O)C1=C(C)N(C)C(=O)NC1c1cccc2ccccc12 (stereo unspecified)	inactive: 12.5%
CCN(CC)C(=O)CSC(Nc1ccc(F)cc1)=C(C#N)C#N	inactive: 6.54%
OC(c1cccc(Cl)c1)c1nc(-c2ccc(Cl)cc2)cs1 (stereo unspecified)	inactive: -85.1%
COc1ccc(C(=O)Nc2cc(C(C)=O)c(C)oc2=O)cc1	inactive: 6.06%
CCOC(=O)N1CCN(c2c(NCCN3CCN(c4ccccc4F)CC3)c(=O)c2=O)CC1	inactive: -0.992%
N=C(N)SCc1cn2ccccc2n1	inactive: 21.5%
COc1ccc(NC(=O)c2ccco2)c(OC)c1	inactive: 20.9%
O=C(NC1CCCCC1)C(c1cccnc1)N(CCc1ccccc1)C(=O)Cc1cccs1 (stereo unspecified)	inactive: -6.71%
CC(OC(=O)c1ccc(S(=O)(=O)N(C)c2ccccc2)cc1)C(=O)NCCC1=CCCCC1 (stereo unspecified)	inactive: -13.7%
CCN(CC)S(=O)(=O)c1ccc(OC)c(N)c1	inactive: 6.49%
Cc1nc(C(C)N(C)Cc2c(C(=O)N3CCCCC3)nc3c(C)cccn23)c(C)s1 (stereo unspecified)	inactive: -14.4%
CCN(C(=O)COC(=O)c1nccnc1N)c1cccc2ccccc12	inactive: 19.3%
O=C(NCc1ccc2c(c1)OCO2)c1ccccc1	inactive: 1.6%
CCCc1ccc(OCc2nc(-c3ccc(NC(=O)c4cccs4)cc3)no2)cc1	inactive: 7.25%
CCOC1=NS(=O)(=O)c2ccccc21	inactive: -3.22%
O=C(COC(=O)/C=C/c1ccc([N+](=O)[O-])cc1)NNC(=O)c1ccccc1	inactive: 16.2%
O=C(CSc1nnc(C2CC2)n1C1CC1)c1cc(F)ccc1F	inactive: 5.56%
CN1C(=O)/C(=C/c2ccc(O)c([N+](=O)[O-])c2)NC1=S	inactive: -0.799%

Structure (SMILES)	growth rescue (activation)
Cc1ccc(S(=O)(=O)/N=C(/c2ccccc2)N2CCOCC2)c(C)c1	inactive: -15.2%
COc1ccc(NS(=O)(=O)c2cc(NC(=O)c3ccccc3F)ccc2N2CCCC2)cc1	inactive: 10.5%
CC(=O)N1N=C(c2cccs2)CC1c1ccco1 (stereo unspecified)	inactive: 19%
Nn1c(C2CCC2)nc2ccccc2c1=O	inactive: -7.93%
O=C(O)c1cc2c(cc1NC(=O)c1c(F)cccc1Cl)OCCCO2	inactive: -0.267%
O=C1CCC[C@@H]2[C@H]3CCC[N+]4([O-])CCC[C@@H](CN12)[C@@H]34 (stereo partly specified)	inactive: 9.34%
Cc1ccc2nc3c(cc(C(=O)NCCc4ccccc4)c(=N)n3CCN3CCOCC3)c(=O)n2c1	inactive: -6.48%
O=C(CSc1nncn1-c1ccccc1)N1CCCC1	inactive: -10.1%
COc1ccc(C2CC(c3ccc(Br)cc3)=NN2C(=O)CCC(=O)O)cc1OC (stereo unspecified)	inactive: 5.01%
COc1cc(/C=N/Nc2cc(C)nc(NS(=O)(=O)c3ccccc3)n2)ccc1O	inactive: -16.5%
N#Cc1c(SCC(N)=O)nc(-c2ccccc2)c2c1CCCC2	inactive: -5.66%
CC1Cc2cc(-c3csc(NC(=O)CCl)n3)ccc2N1C(=O)C1CC1 (stereo unspecified)	inactive: 5.93%
CCOc1ccccc1-c1nc(CN2CCC(C(=O)N3CCOCC3)CC2)c(C)o1	inactive: -16.2%
Cc1c(/C(O)=C2\C(=O)C(=O)N(CCCN(C)C)C2c2ccco2)cnn1-c1ccccc1 (stereo unspecified)	inactive: 7.9%
CCN1c2ccccc2S(=O)(=O)c2ccccc21	inactive: 26.7%
CN(C(=O)COC(=O)Cc1ccc(Cl)cc1)C1CCCCC1	inactive: -9.6%
CC1CCCCC1NC(=O)COC(=O)c1ccc2c(c1)NC(=O)CS2 (stereo unspecified)	inactive: 22%
O=C(Nc1nccs1)C1CC(=O)N(CCc2ccc(F)cc2)C1 (stereo unspecified)	inactive: 8.69%
COc1ccc(C(=O)COC(=O)c2ccc(Cl)nc2)cc1OC	inactive: 16.1%
Cc1cccc(-c2nnc(SCC(=O)Nc3cc(C)on3)n2C)c1	inactive: -4.79%
O=C(CN1C(=O)S/C(=C/C=C/c2ccccc2)C1=O)Nc1ccc(C(=O)O)cc1	inactive: 8.56%
CC(=O)NCc1nnc2c3ccccc3c(-c3ccccc3)nn12	inactive: 1.12%
COC(CNC(=O)c1ccc(CS(=O)(=O)c2ccccc2)o1)OC	inactive: -1.93%
CCOP(=O)(OCC)C(NC(=O)Nc1ccc(Cl)c(Cl)c1)C(N)=O (stereo unspecified)	inactive: -1.36%

Structure (SMILES)	growth rescue (activation)
Cc1ccc2cc(CN(CC3CCCO3)C(=O)c3cccs3)c(=O)[nH]c2c1 (stereo unspecified)	inactive: 11.8%
Cc1cc(C)nc(-n2ncc(C#N)c2N)n1	inactive: 12.2%
COc1ccc(-n2c(O)c(C=NC3CC3)c(=O)[nH]c2=O)cc1	inactive: -17.5%
Fc1ccc(F)c(NC2=NCCCCC2)c1	inactive: 0.48%
CC1CC(C)CN(C(=O)CNS(=O)(=O)c2cccs2)C1 (stereo unspecified)	inactive: -20.2%
CN(C(=O)Cn1nc(C(=O)O)c2ccccc2c1=O)C1CCCCC1	inactive: 14.6%
Cc1ccc2cc(CN(CCc3ccccc3)C(=S)NCCCN(C)C)c(=O)[nH]c2c1	inactive: -15.9%
O=C(CSc1nc(Nc2ccccc2)nc(N2CCOCC2)n1)N1CCc2ccccc21	inactive: -11.4%
O=C(CN1CCOCC1)Nc1ccccc1Sc1ccccc1	inactive: 9.36%
COc1ccc(CNC(=O)c2ccc3nc(C)c(N(C)Cc4ccc(NC(C)=O)cc4)n3c2)cc1	inactive: 3.41%
O=C(Nc1cccc(C(=O)O)c1)/C(=C\c1ccc2c(c1)OCO2)NC(=O)c1ccc(Br)cc1	inactive: -14.4%
CCCCN(C)C(=O)c1nc2ccccn2c1CNC1CCC1	inactive: 7.57%
Nc1ccnn1Cc1ccncc1	inactive: 5.27%
COc1ccc(N(CC(=O)NCc2ccccc2)C(=O)CCC(=O)Nc2cc(C)ccn2)c(OC)c1	inactive: -4.44%
Cc1ccc(C)c(C2C(C#N)=C(N)Oc3cc(C)oc(=O)c32)c1 (stereo unspecified)	inactive: 10.6%
CN(C)C(/C=C/Nc1cccc(Br)c1)=C(C#N)C#N	inactive: 11.8%
Cc1ccc(NC(=O)CN(C)C(=O)Cn2c(=O)oc3ccccc32)cc1	inactive: -9.69%
Cc1ccc(-c2cc(C(=O)Nc3c(C)n(C)n(-c4ccccc4)c3=O)c3ccccc3n2)cc1	inactive: 26.2%
COc1cc(C(=O)O)cc(NC(=O)c2cccs2)c1OC	inactive: -1.5%
NC(c1cccc(F)c1)c1nc(-c2ccc(Cl)cc2)cs1 (stereo unspecified)	inactive: -9.03%
Cc1cccc(C)c1NC(=O)COC(=O)CSc1nnc(N)s1	inactive: -9.14%
Cc1ccc2oc(C(=O)N3CCN(Cc4ncccc4C)CC3)c(C)c2c1	inactive: 9.47%
O=S(=O)(c1cccc2nsnc12)N1CCN(Cc2ccccc2)CC1	inactive: 14.8%
